Source: PubChem BioAssay (NCATS)
Where “and” joins values, the source holds several entries; their conditions need not be identical. Equal values may be shown once. The inconclusive results got no clear call from the source; some entries with a clear call stand among them for comparison. Where the call is inconclusive, the potency comes from a doubtful curve fit. Calls of active or inactive are those of the source. Calls come from the whole dose curve; as a rule, active = well fitted cell-killing curve with a large enough effect; inconclusive = small, poorly fitted or top-dose-only effect, or effect the other way; inactive = no such curve, though single readings can be large or run the other way.

assay: Viability qHTS for spleen associated tyrosine kinase inhibitor (SYKi) naive MV4-11 cells (AID 1963823); conditions: MV4-11 AML viability, CellTiter-Glo luminescence, 72 h; viability (% of control): at 45 µM (top of the series); note: nearly all actives have a fitted effect of over 40% in size
Procedure, shortened: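 Luminescence from CellTiter-Glo, developed 10 min at room temperature, gave viability of MV4-11 cells never exposed to SYK inhibitor. Cells (500/well) had been incubated with compounds for 72 hr under standard culture conditions.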
Potency is the fitted concentration of half-maximal effect; tags give direction and shape of the fitted curve.

SMILES | viability (% of control) | Potency
O=C(COc1cccc2c(=O)[nH]ccc12)c1ccccc1 | inconclusive: 40.2% [cytotoxic] | –
CC(C)(C)n1nc(Cc2cccc([N+](=O)[O-])c2)c2c(N)ncnc21 | – | inconclusive: 6.51 µM [cytotoxic, partial curve]
COC(=O)C(Cc1ccccc1)NC(=O)c1ccccc1 (centres undefined) | – | inconclusive: 20.6 µM [cytotoxic, single point]
CC1(C)O[C@@H]2C[C@H]3[C@@H]4CCC5=CC(=O)C=C[C@]5(C)[C@@]4(F)[C@@H](O)C[C@]3(C)[C@]2(C(=O)CO)O1 | – | inconclusive: 750 nM [cytotoxic, full curve, poor fit] and inconclusive: 742 nM [cytotoxic, full curve, poor fit]
CC(C)=CCC[C@](C)(O[C@@H]1O[C@H](CO[C@@H]2O[C@H](CO)[C@@H](O)[C@H](O)[C@H]2O)[C@@H](O)[C@H](O)[C@H]1O)[C@H]1CC[C@]2(C)[C@@H]1[C@H](O)C[C@@H]1[C@@]3(C)CC[C@H](O[C@@H]4O[C@H](CO)[C@@H](O)[C@H](O)[C@H]4O[C@@H]4O[C@H](CO)[C@@H](O)[C@H](O)[C@H]4O)C(C)(C)[C@@H]3CC[C@]12C | – | inactive
Nc1nc2c(ncn2[C@@H]2O[C@H](CO)[C@@H](O)[C@H]2O)c(=O)[nH]1 | – | inconclusive: 18.4 µM [cytotoxic, single point]
CCC1(c2cnc[nH]2)Cc2ccccc2C1 | – | inactive
NC/C=C/C(=O)O | – | inactive
CCC(=C(c1ccc(OCCN2CCCC2)cc1)c1ccc(OCCN2CCCC2)cc1)c1ccccc1 | – | inconclusive: 3.26 µM [cytotoxic, full curve]
CCN(CC)CCN | – | inconclusive: 18.8 µM [cytotoxic, single point]
CC(=O)O[C@@H]1[C@@H](O)[C@H](O[C@H]2CC[C@]34C[C@]35CC[C@]3(C)[C@@H]([C@@]6(C)CC[C@@H](C(C)(C)O)O6)[C@@H](O)C[C@@]3(C)[C@@H]5C[C@H](O[C@@H]3O[C@H](CO)[C@@H](O)[C@H](O)[C@H]3O)[C@H]4C2(C)C)OC[C@H]1O | – | inactive
COC(=O)CCC(=O)OC[C@]1(C)CCC[C@@]2(C)C3CC[C@]4(C)C=CC3(CCC12)C4 (some centres undefined) | – | inactive
CCC(C)C(=O)O[C@H]1[C@@H](OC(=O)c2ccoc2)C[C@](C)(O)[C@]23OC(C)(C)[C@H](C[C@H](OC(=O)c4ccoc4)[C@]12COC(C)=O)[C@H]3OC(C)=O (some centres undefined) | – | inactive
CC(=O)c1ccc(O[C@@H]2O[C@H](CO[C@@H]3OC[C@@H](O)[C@H](O)[C@H]3O)[C@@H](O)[C@H](O)[C@H]2O)cc1 | – | inactive
c1ccc2c(Nc3nnc(-c4ccncc4)s3)cccc2c1 | – | inactive
C=CCNC(N)=S | – | inactive
CC1=CCC(O)C2(C)CCC3C(C)C(=O)OC3C12 (centres undefined) | – | inconclusive: 3.66 µM [cytotoxic, single point]
CC1=CC(=O)C[C@H]2[C@@H]1CC[C@@H](C)[C@]21CO[C@H](c2ccoc2)C1=O | – | inactive
CCCCC1=NC2(CCCC2)C(=O)N1Cc1ccc(-c2ccccc2-c2nn[nH]n2)cc1 | – | inactive
C=C(C)C1Cc2c(ccc3c2OCC(c2ccc(O)cc2O)C3)O1 (centres undefined) | – | inconclusive: 10.1 µM [cytotoxic, single point]
C=C1CCC(OC(C)=O)C2(C)CC3(O)OC(=O)C(C)=C3CC12 (centres undefined) | – | inactive
COCCN1CCC(C(=O)NO)(S(=O)(=O)c2ccc(Oc3ccc(OC(F)(F)F)cc3)cc2)CC1 | – | active: 20.6 µM
COC[C@H](C)Oc1cc(O[C@@H](C)Cc2ccccc2)cc(C(=O)Nc2ccc(C(=O)O)cn2)c1 | – | inconclusive: 18.4 µM [cytotoxic, single point]
COc1ccccc1OCCNCC(O)CCOc1cccc2[nH]c3ccccc3c12 (centres undefined) | – | active: 9.2 µM
CN1CCN(C(=O)[C@H]2[C@@H](C(=O)O)[C@H]3CC[C@@H]2O3)CC1 | inactive: 78.3% [at 9.25 µM] | –
C=C1CC23CC1CCC2C12OC(=O)C(C)(C(O)CC1O)C2C3C(=O)O (centres undefined) | – | inconclusive: 2.86 µM [cytotoxic, single point]
CC(=O)Oc1cccc(C)c1 | – | inactive
CC1(C)S[C@@H]2[C@H](NC(=O)[C@H](N)c3ccc(O)cc3)C(=O)N2[C@H]1C(=O)O | – | inactive
COC(=O)[C@@H](NC(=O)[C@H](CC(C)C)NC(=O)N(Cc1ccccc1)C[C@@H](O)[C@H](Cc1ccccc1)NC(=O)OC(C)(C)C)C(C)C | – | inconclusive: 5.31 µM [cytotoxic, single point]
